Data reported in PubChem BioAssay AID624417 (National Center for Advancing Translational Sciences (NCATS), 2012).
Among all 410,000 compounds or so, about 6,400 (1.6%) were called active. The shares of active, inactive and inconclusive entries below differ from those in the screen. Calls follow the shape of the dose curve; as a rule, active = well fitted inhibition curve with a large enough effect; inconclusive = small, poorly fitted or top-dose-only effect; inactive = no such curve, though single readings can be large or run the other way. Potencies of inconclusive entries are left out as doubtful fits.

Biological target: Glucagon-like peptide 1 receptor (Homo sapiens) (UniProt P43220)
Chain of UniProt P43220 (P43220 whole entry, looked up): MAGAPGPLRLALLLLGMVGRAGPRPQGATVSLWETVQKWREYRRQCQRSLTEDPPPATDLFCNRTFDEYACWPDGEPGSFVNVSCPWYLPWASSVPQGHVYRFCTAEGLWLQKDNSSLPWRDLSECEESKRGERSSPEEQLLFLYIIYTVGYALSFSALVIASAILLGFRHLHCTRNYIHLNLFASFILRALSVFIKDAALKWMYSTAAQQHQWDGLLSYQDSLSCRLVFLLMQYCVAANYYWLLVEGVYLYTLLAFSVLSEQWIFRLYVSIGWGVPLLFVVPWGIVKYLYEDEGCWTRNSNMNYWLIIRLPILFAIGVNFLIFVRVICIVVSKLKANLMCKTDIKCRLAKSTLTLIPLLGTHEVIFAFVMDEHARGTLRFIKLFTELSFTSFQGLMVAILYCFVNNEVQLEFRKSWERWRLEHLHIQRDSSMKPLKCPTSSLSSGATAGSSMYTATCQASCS
Assay: qHTS of GLP-1 Receptor Inverse Agonists (Inhibition Mode); also: nearly all actives have a fitted effect of over 55% in size
Details: HEK293 GLP-1R CRE-luciferase, luminescence, 24 h, GLP-1R form is constitutively active; series mostly up to 38.3 µM
In short: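 Luminescence readout: a drop in cAMP-driven luciferase signal flags inverse agonism at a constitutively active GLP-1R stably expressed in HEK293. Compound exposure lasted 24 hr at 37 deg C, 5% CO2.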
Potency is read from the fitted curve at half-maximal effect; tags tell the direction and shape of the fitted curve.

How did the Potency turn out when `O=C(CNc1cccc(F)c1)Nc1cccc(S(=O)(=O)N2CCCCC2)c1` was run?
The Potency was inconclusive [inhibitor, single point].

With `COc1ccccc1-n1cc(-c2ccc(Br)cc2)[nH]c1=S` as the compound, how does the Potency read?
Its Potency is inconclusive [inhibitor, single point].

`CCOC(=O)[C@]12CCCC=C1N(Cc1ccco1)C(=O)[C@H](CC(=O)NCC1CCCCC1)C2` was tested. Which Potency did it give?
The Potency was inconclusive [inhibitor, single point].

How did the Potency turn out when `Oc1ccc2c(c1)OCC1(O)Cc3cc(O)c(O)cc3C21` (stereo unspecified) was run?
The Potency was inconclusive [inhibitor, single point].

For `Nc1nc(N)nc(-c2ccc(Cl)c(Cl)c2)n1`, which Potency is on record?
The Potency was inconclusive [inhibitor, single point].

`CSc1ncc(Cl)c(C(=O)Nc2ccc(S(=O)(=O)N3CCC(C)CC3)cc2)n1` was tested. Which Potency did it give?
Its Potency is inconclusive [inhibitor, single point].

How did the Potency turn out when `O=C(NCCS(=O)(=O)N1CCN(c2ccc(F)cc2)CC1)C12CC3CC(CC(C3)C1)C2` was run?
The Potency was inconclusive [inhibitor, single point].

Which Potency does the source give for `CCCCc1cc(=O)oc2cc(C)c3c(C)coc3c12` here?
Its Potency is “inactive”.

Which Potency does the source give for `CN1CCC(N(C)S(=O)(=O)c2ccc(NC(=O)COc3ccc([N+](=O)[O-])cc3)cc2)CC1` here?
The Potency was inconclusive [inhibitor, partial curve, poor fit].

`Cc1ccc(S(=O)(=O)N2CCCCC2)cc1NC(=O)CN1CCCC1c1cccs1` (stereo unspecified) was tested. Which Potency did it give?
The Potency was inconclusive [inhibitor, partial curve, poor fit].

`CC1CC(Nc2ccccc2)c2ccccc2N1C(=O)c1ccccc1F` (stereo unspecified) was tested. Which Potency did it give?
Its Potency is inconclusive [inhibitor, partial curve, poor fit].

With `CCc1cc(C)cc(OCCNC(=O)c2cncc(Br)c2)c1` as the compound, how does the Potency read?
Its Potency is inconclusive [inhibitor, partial curve, poor fit].

How did the Potency turn out when `COC(=O)[C@]1(Cc2ccccc2)N[C@H](c2ccc(-c3cccc(Cl)c3)cc2)[C@@H]2C(=O)N(C)C(=O)[C@@H]21` was run?
Its Potency is inconclusive [inhibitor, partial curve, poor fit].

For `Cc1ccc(-n2ncc3c(NCCCN4CCOCC4)ncnc32)cc1Cl`, which Potency is on record?
The Potency was inconclusive [inhibitor, partial curve, poor fit].

For `Cc1nc(-c2cccc(NC(=O)Cc3ccccc3)c2)cs1`, which Potency is on record?
The Potency was inconclusive [inhibitor, single point].

With `Cc1ccc(S(=O)(=O)N2CCCCC2)cc1C(=O)NCCc1ccccc1` as the compound, how does the Potency read?
Its Potency is inconclusive [inhibitor, single point].

For `CCOc1ccccc1NS(=O)(=O)c1ccc(Br)s1`, which Potency is on record?
The Potency was inconclusive [inhibitor, partial curve].

For `CC(=O)c1cccc(NC(=O)C(C)OC(=O)/C=C/c2cccs2)c1` (stereo unspecified), which Potency is on record?
Its Potency is inconclusive [inhibitor, single point].

How did the Potency turn out when `Cc1cccc(C)c1NC(=O)C(=O)NCCCN1CCOCC1` was run?
Its Potency is “inactive”.

With `COc1cccc(NC(=O)c2ccc(S(=O)(=O)N3CCCC3)cc2)c1` as the compound, how does the Potency read?
Its Potency is inconclusive [inhibitor, partial curve, poor fit].

How did the Potency turn out when `O=C(OCCN1CCCC1)C1(c2ccccc2)CCCC1` was run?
The Potency was inconclusive [inhibitor, single point].

For `CCC/C(C#Cc1ccsc1)=C1/c2ccccc2C(=O)N1c1ccccc1`, which Potency is on record?
The Potency was inconclusive [inhibitor, partial curve, poor fit].

For `CCOC(=O)[C@H]1[C@H]2COc3ccc(Cl)cc3[C@@H]2N2C(=O)c3cc(C)ccc3NC(=O)[C@@]12C`, which Potency is on record?
Its Potency is inconclusive [inhibitor, single point].

How did the Potency turn out when `CCCCN1CC(c2nc3ccccc3n2CCCCOc2ccc(C)cc2C)CC1=O` (stereo unspecified) was run?
Its Potency is inconclusive [inhibitor, single point].

How did the Potency turn out when `O=C(Nc1ccccc1)C1=C[C@H](c2ccc(C(F)(F)F)cc2)C[C@H](OCc2ccc(CO)cc2)O1` was run?
Its Potency is inconclusive [inhibitor, partial curve, poor fit].

For `S=C(Nc1ccc(Cl)c(Cl)c1)NC1CCCCC1`, which Potency is on record?
Its Potency is “inactive”.

`COc1ccc(CNC(=O)N2CCN(c3cccc(Cl)c3)CC2)cc1OC` was tested. Which Potency did it give?
The Potency was inconclusive [inhibitor, partial curve, poor fit].

For `CCn1c(SCC(=O)c2cc(C)n(C)c2C)nnc1-c1ccccc1`, which Potency is on record?
The Potency was “inactive”.

With `C=CCn1c(CNc2ccccc2)nnc1SCC(=O)N/N=C/c1ccc(O)cc1O` as the compound, how does the Potency read?
The Potency was inconclusive [inhibitor, single point].

How did the Potency turn out when `CN(C)c1ccc(N=C/C=C2\N(C)c3ccccc3C2(C)C)cc1` was run?
The Potency was inconclusive [inhibitor, partial curve].

Which Potency does the source give for `CCCCNC(=O)C[C@@H]1C[C@@]2(C(=O)OC)CC(C)(C)CC=C2N(Cc2ccccc2)C1=O` here?
Its Potency is inconclusive [inhibitor, partial curve, poor fit].

Which Potency does the source give for `CCc1ccc(NC(=O)c2cc(S(=O)(=O)N3CCCCCC3)ccc2F)cc1` here?
The Potency was inconclusive [inhibitor, partial curve, poor fit].

Which Potency does the source give for `CN(C)CCCOC(=O)c1ccc(Cl)cc1Cl` here?
Its Potency is inconclusive [inhibitor, single point].

How did the Potency turn out when `CCCN(C(=O)CSc1nc2cc(S(=O)(=O)N(CC)CC)ccc2o1)C1CCS(=O)(=O)C1` (stereo unspecified) was run?
The Potency was inconclusive [inhibitor, partial curve].

`Cc1cccc(C)c1NC(=O)c1csc2c1CCCC2` was tested. Which Potency did it give?
The Potency was inconclusive [inhibitor, full curve].

For `CCOC(=O)[C@]12Cc3c(cc(OC)c(OC)c3OC)[C@H]1N(CCC(=O)OC)C(=O)c1cc(OC)ccc12`, which Potency is on record?
The Potency was inconclusive [inhibitor, partial curve, poor fit].

`O=C1CCN(Cc2cccnc2)CCN1[C@H](CO)Cc1ccccc1` was tested. Which Potency did it give?
Its Potency is “inactive”.

Which Potency does the source give for `Cc1ccn2c(Cc3ccccc3)c(-c3ccccc3)nc2c1` here?
The Potency was “inactive”.

How did the Potency turn out when `COc1ccccc1NC(=O)C(=O)c1cc(C)n(-c2ccccc2F)c1C` was run?
The Potency was inconclusive [inhibitor, partial curve, poor fit].

With `O=C(CO/N=C/c1ccc(OC(F)F)cc1)NCc1cccs1` as the compound, how does the Potency read?
Its Potency is “inactive”.

For `CCOc1ccccc1N(C(=O)c1snc(C(N)=O)c1N)C(C(=O)NC1CCCC1)c1cccs1` (stereo unspecified), which Potency is on record?
Its Potency is inconclusive [inhibitor, single point].

`Cc1nc(NC(=O)CN2CCC(O)(c3ccc(F)cc3)CC2)sc1C` was tested. Which Potency did it give?
Its Potency is “inactive”.

`CCCC(=O)N1CCN(c2nc3c(OC)ccc(Cl)c3s2)CC1` was tested. Which Potency did it give?
Its Potency is inconclusive [inhibitor, partial curve, poor fit].

Which Potency does the source give for `CCC[C@@H]1C[C@@]1(CCC)[C@@H](NC(=O)c1ccccc1)c1ccc(C(=O)OC)cc1` here?
Its Potency is active: 5.01 µM.

For `Cc1ccc(/C=C/C(=O)N2CCN(S(=O)(=O)c3c(C)c(C)cc(C)c3C)CC2)o1`, which Potency is on record?
Its Potency is inconclusive [inhibitor, partial curve, poor fit].

With `C/C(=N/NC(=S)Nc1cccc(C)c1)c1cccc([N+](=O)[O-])c1` as the compound, how does the Potency read?
Its Potency is inconclusive [inhibitor, partial curve, poor fit].

With `COc1ccccc1N=C1SC(C(=O)Nc2ccc(F)cc2)CC(=O)N1C` (stereo unspecified) as the compound, how does the Potency read?
Its Potency is inconclusive [inhibitor, partial curve, poor fit].

How did the Potency turn out when `Cc1ccc(Cl)c(OCC(=O)NC2CCN(Cc3ccccc3)CC2)c1` was run?
The Potency was inconclusive [inhibitor, single point].

For `Clc1cccc(/C=N/N2CCN(Cc3ccccc3)CC2)c1`, which Potency is on record?
Its Potency is inconclusive [inhibitor, single point].

How did the Potency turn out when `Cc1ccc(CC(=O)Nc2nc3ccccc3s2)cc1` was run?
Its Potency is inconclusive [inhibitor, single point].

`CC[C@@]12C(=O)N(c3ccc(C)cc3)C(=O)N1[C@H](c1cccc(C)c1)[C@@H]1C(=O)N(Cc3ccccc3)C(=O)[C@@H]12` was tested. Which Potency did it give?
Its Potency is inconclusive [inhibitor, single point].

With `Clc1ccc(CNCCCSc2ncccn2)cc1Cl` as the compound, how does the Potency read?
The Potency was inconclusive [inhibitor, single point].

How did the Potency turn out when `Cc1nn(Cc2ccc(C(=O)Nc3ccccc3F)cc2)c(C)c1Cl` was run?
Its Potency is inconclusive [inhibitor, single point].

For `CCN(CC)CC#CCC(O)(c1ccccc1)c1ccccc1`, which Potency is on record?
The Potency was inconclusive [inhibitor, partial curve, poor fit].

Which Potency does the source give for `O=[N+]([O-])c1cc(/C=N/N2CCN(Cc3ccccc3)CC2)ccc1Cl` here?
The Potency was inconclusive [inhibitor, partial curve, poor fit].

Which Potency does the source give for `CCCCNC(=S)NC(=O)c1ccc([N+](=O)[O-])cc1` here?
Its Potency is inconclusive [inhibitor, single point].

How did the Potency turn out when `O=C(Cc1ccccc1F)NC1CCCN(Cc2ccc(Cl)cc2)C1` (stereo unspecified) was run?
The Potency was inconclusive [inhibitor, single point].

`COc1ccc(N2CCN(Cc3nc4scc(-c5ccccc5)c4c(=O)[nH]3)CC2)cc1` was tested. Which Potency did it give?
Its Potency is inconclusive [inhibitor, single point].

For `OCCNc1nc(N2CCN(Cc3ccccc3)CC2)nc2ccccc12`, which Potency is on record?
The Potency was inconclusive [inhibitor, single point].

`CC1(C)CC2(CCCN(CC(O)(c3ccccc3)c3ccccc3)C2)CCO1` (stereo unspecified) was tested. Which Potency did it give?
The Potency was inconclusive [inhibitor, single point].

`CCOC(=O)c1ccc2nc(NC(=O)C(C)C)sc2c1` was tested. Which Potency did it give?
Its Potency is inconclusive [inhibitor, single point].
